Among all 350,000 compounds or so, about 31,000 (8.9%) were called active. The shares of active, inactive and inconclusive entries below differ from those in the screen. The call rests on the fitted dose curve; in most records, active means well fitted inhibition curve with a large enough effect; inconclusive means small, poorly fitted or top-dose-only effect; inactive means no such curve, though single readings can be large or run the other way. Potencies beside an inconclusive call are fits to weak or partial responses and may not hold up.
The molecules below were run against Histone-lysine N-methyltransferase EHMT2 (Homo sapiens) (UniProt Q96KQ7) (assay: qHTS Assay for Inhibitors of Histone Lysine Methyltransferase G9a). Details: G9a H3K9 monomethylation, AlphaScreen, 2 h; activity, negative = inhibition: at 59 µM (top of the series) unless noted.
Chain of UniProt Q96KQ7 (Q96KQ7 whole entry, looked up): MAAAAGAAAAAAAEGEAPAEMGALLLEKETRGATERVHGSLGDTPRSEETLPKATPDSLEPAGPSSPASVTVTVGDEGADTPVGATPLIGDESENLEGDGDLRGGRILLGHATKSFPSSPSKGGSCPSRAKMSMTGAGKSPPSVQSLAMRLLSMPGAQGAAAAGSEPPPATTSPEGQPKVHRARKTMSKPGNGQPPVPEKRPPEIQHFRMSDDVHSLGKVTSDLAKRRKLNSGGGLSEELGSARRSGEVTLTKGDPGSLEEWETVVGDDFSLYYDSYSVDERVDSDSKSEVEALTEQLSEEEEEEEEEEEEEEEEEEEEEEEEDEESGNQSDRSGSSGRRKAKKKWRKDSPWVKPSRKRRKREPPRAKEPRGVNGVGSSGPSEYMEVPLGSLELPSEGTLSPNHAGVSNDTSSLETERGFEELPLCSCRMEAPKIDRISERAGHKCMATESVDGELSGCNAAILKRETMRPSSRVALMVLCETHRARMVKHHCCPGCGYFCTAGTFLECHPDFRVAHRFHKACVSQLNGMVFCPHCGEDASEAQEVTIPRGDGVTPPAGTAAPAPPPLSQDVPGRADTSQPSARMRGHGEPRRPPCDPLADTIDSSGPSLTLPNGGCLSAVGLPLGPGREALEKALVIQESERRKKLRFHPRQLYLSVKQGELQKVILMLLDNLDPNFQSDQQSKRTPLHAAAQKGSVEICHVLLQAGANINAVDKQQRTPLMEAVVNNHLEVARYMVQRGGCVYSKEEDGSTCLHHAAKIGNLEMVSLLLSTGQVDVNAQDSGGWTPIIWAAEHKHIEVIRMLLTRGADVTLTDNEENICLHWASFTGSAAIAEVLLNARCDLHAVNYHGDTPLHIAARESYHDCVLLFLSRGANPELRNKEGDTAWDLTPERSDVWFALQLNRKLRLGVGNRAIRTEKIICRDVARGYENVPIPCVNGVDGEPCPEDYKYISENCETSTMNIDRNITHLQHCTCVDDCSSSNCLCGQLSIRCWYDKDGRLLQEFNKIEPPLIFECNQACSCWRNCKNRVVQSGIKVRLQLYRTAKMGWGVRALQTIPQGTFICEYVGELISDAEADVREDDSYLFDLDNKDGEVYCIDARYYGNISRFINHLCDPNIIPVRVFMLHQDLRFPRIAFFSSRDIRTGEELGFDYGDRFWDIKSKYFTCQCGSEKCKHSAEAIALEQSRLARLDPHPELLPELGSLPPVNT
In short: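 Chemiluminescent proximity detection of H3K9 monomethylation, read after 10 min bead incubation in the dark. Reaction: 20 nM G9a, 500 nM biotin-H3K9 peptide, 20 uM SAM cofactor, 2 h, room temperature, following 15 min enzyme-compound preincubation.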
For COC(=O)CSc1nc2ncccc2[nH]1, the Potency was inconclusive: 28.2 µM [inhibitor, partial curve, poor fit]. With COc1ccc(C2c3c(n(C)c4ccccc34)C(=O)N2CC(=O)Nc2cccc(Cl)c2)cc1 (configuration not stated) the “activity, negative = inhibition” value was inactive: -12.6%. In the case of COc1ccc(C)cc1NC(=O)CCCN1C(=O)CCC1=O, the Potency is reported as inconclusive: 89.1 µM [inhibitor, single point]. In the case of O=C(COc1ccc(S(=O)(=O)NCc2ccccc2)cc1Cl)NCc1ccncc1, the Potency is reported as inconclusive: 79.4 µM [inhibitor, partial curve, poor fit]. Cc1cn(S(=O)(=O)c2ccc(Br)c3ccccc23)cn1 was tested, and the activity, negative = inhibition was inconclusive: -61.1% [inhibitor]. With Cc1ccc(C)c(S(=O)(=O)NCCCN2CCOCC2)c1 the Potency was inconclusive: 44.7 µM [inhibitor, partial curve]. For CCN1CCCC(OC(=O)c2cc(-c3ccccc3Cl)nc3ccccc23)C1 (configuration not stated), the Potency was inconclusive: 44.7 µM [inhibitor, partial curve]. For Cc1ccc(NC(=O)CS(=O)CC(=O)Nc2ccccc2-c2ccc(C)o2)cc1 (configuration not stated), the Potency was inconclusive: 39.8 µM [inhibitor, single point]. In the case of COc1ccc(Nc2oc(COc3ccccc3F)nc2C#N)cc1, the Potency is reported as active: 35.5 µM. In the case of O=C(Cn1c(=O)n(-c2ccccc2)c(=O)c2c3c(sc21)CCCC3)Nc1ccc(F)cc1F, the “activity, negative = inhibition” value is reported as inactive: -31.9%. O=C(O)CCc1ccc(-c2ccccc2)n1Cc1ccco1 was tested, and the Potency was active: 31.6 µM. With S=C1NCN(Cc2cccnc2)CN1 the “activity, negative = inhibition” value was inactive: -1.8% [at 102 µM]. For Cc1ccc(-c2nnc3ccc(SCC(=O)Nc4cc(C)on4)nn23)cc1, the Potency was inconclusive: 89.1 µM [inhibitor, single point]. For CC(Sc1nnc2ccccn12)C(=O)Nc1ccc2c(c1)OCO2 (configuration not stated), the “activity, negative = inhibition” value was inactive: -6.06% [at 102 µM]. In the case of Cc1ncsc1C(=O)Nc1cccc(C(F)(F)F)c1, the “activity, negative = inhibition” value is reported as inactive: 6.89% [at 102 µM]. For COc1ccc(CNCc2ccc3ccccc3c2)c(OC)c1, the Potency was active: 11.2 µM. O=C(Nc1cccc(C(F)(F)F)c1)c1cccnc1N1CCN(c2ccccc2)CC1 was tested, and the Potency was inconclusive: 31.6 µM [inhibitor, full curve, poor fit]. N#Cc1nc(-c2ccc(COc3ccc(Cl)cc3)o2)oc1N1CCC(C(N)=O)CC1 was tested, and the Potency was active: 8.91 µM. In the case of CC1CCN(c2nn3c(=O)c(C(=O)NC(C)C)cnc3s2)CC1, the “activity, negative = inhibition” value is reported as inactive: 4.49%. In the case of CC1Cc2cc(S(=O)(=O)CCC(=O)NCc3ccco3)ccc2N1C(=O)C1CC1 (configuration not stated), the Potency is reported as inconclusive: 89.1 µM [inhibitor, single point]. For CS/C(=C\[N+](=O)[O-])Nc1ccc(F)cc1, the Potency was inconclusive: 10 µM [inhibitor, partial curve, poor fit]. CC(C)c1ccccc1NC(=O)c1cccc(NC(=O)c2ccccc2)c1 was tested, and the Potency was inconclusive: 89.1 µM [inhibitor, partial curve, poor fit]. With CC1(/[N+]([O-])=C/c2ccc(F)cc2)CCCCC1=O (configuration not stated) the Potency was inconclusive: 89.1 µM [inhibitor, single point]. With COc1ccc(C2C(C(=O)c3ccc(C)o3)=C(O)C(=O)N2c2cc(C)on2)cc1OC (configuration not stated) the Potency was inconclusive: 50.1 µM [inhibitor, partial curve, poor fit]. For COc1ccc(S(=O)(=O)Nc2cc3c4c(c2)CCC(=O)N4CCC3)cc1C, the Potency was inconclusive: 25.1 µM [inhibitor, partial curve, poor fit]. With CC1CCN(c2c(NCC3CCC(C(=O)NCc4ccc(F)cc4)CC3)c(=O)c2=O)CC1 (configuration not stated) the Potency was inconclusive: 35.5 µM [inhibitor, single point]. In the case of Cn1c(N)c(C(=O)/C=C/c2ccccc2)c(=O)[nH]c1=O, the Potency is reported as inconclusive: 56.2 µM [inhibitor, partial curve, poor fit]. For COC(=O)CC1C(=O)NCCN1C(=S)NC(=O)c1sc2ccccc2c1Cl (configuration not stated), the Potency was inconclusive: 10 µM [inhibitor, full curve, poor fit]. COc1cccc([C@@H]2Oc3ccc(OC)cc3C(=O)[C@H]2OC(=O)NCc2ccc3c(c2)OCO3)c1 was tested, and the Potency was active: 44.7 µM. In the case of O=C(O)c1ccccc1-n1ncc2c1/C(=C/c1ccc(Cl)cc1)CC2, the “activity, negative = inhibition” value is reported as inactive: -41.5% [at 102 µM]. With O=C(C1CCCO1)N1CCN(C(c2ccccc2)c2ccccc2)CC1 (configuration not stated) the Potency was active: 8.91 µM. In the case of CCN1CCOC(=O)C1CC(=O)Nc1ccc(Br)cc1 (configuration not stated), the Potency is reported as active: 2.51 µM. CN(C)CCNC(=S)Nc1ccc(-c2nc3ccccc3[nH]2)cc1 was tested, and the Potency was active: 50.1 µM. With O=C(c1cc2c(=O)n3ccccc3nc2s1)N1CCN(Cc2ccc3c(c2)OCO3)CC1 the “activity, negative = inhibition” value was inactive: -6.9% [at 102 µM]. CNC(=S)Nc1ccc([N+](=O)[O-])cc1 was tested, and the Potency was active: 56.2 µM. In the case of COc1cccc(N2CCN(C(=O)c3ccc(CS(=O)c4ccccc4C)o3)CC2)c1 (configuration not stated), the “activity, negative = inhibition” value is reported as inactive: 21.5% [at 102 µM]. For Cc1ccc(-n2nc(-c3ccco3)cc2C(=O)O)cc1, the activity, negative = inhibition was inconclusive: -102% [inhibitor]. In the case of Brc1cc2c(cc1Cn1c(-c3cncs3)nc3ccccc31)OCO2, the Potency is reported as inconclusive: 50.1 µM [inhibitor, partial curve, poor fit]. For O=C(NCCCc1ccccc1)c1ccccc1, the “activity, negative = inhibition” value was inactive: -0.236% [at 102 µM]. In the case of Cc1ccccc1-n1c(-c2ccco2)n[nH]c1=S, the Potency is reported as active: 7.08 µM. CN(NC1CC(=O)N(c2ccccc2)C1=O)c1ccccc1 (configuration not stated) was tested, and the Potency was inconclusive: 39.8 µM [inhibitor, single point]. For O=C(NCCc1ccccc1)C1CC(=O)N(C2CCCC2)C1 (configuration not stated), the “activity, negative = inhibition” value was inactive: 0.572% [at 102 µM]. Cc1ccc(C2N(c3ccc(F)cc3)C(=O)C3CCCN32)cc1 (configuration not stated) was tested, and the Potency was inconclusive: 89.1 µM [inhibitor, single point]. COc1ccc(N2CCN(C(=O)C3CCCN(S(=O)(=O)c4cccc5cccnc45)C3)CC2)cc1 (configuration not stated) was tested, and the Potency was inconclusive: 39.8 µM [inhibitor, partial curve, poor fit]. For O=C(NCc1ccco1)c1ccc(N2CCCCC2)c([N+](=O)[O-])c1, the Potency was inconclusive: 5.62 µM [inhibitor, full curve, poor fit]. CCC(Cc1ccccc1)NC(=O)CSc1ccsc1[N+](=O)[O-] (configuration not stated) was tested, and the Potency was inconclusive: 1.41 µM [inhibitor, full curve, poor fit]. For CCCCCn1c(CN2CCN(c3ccc(OC)cc3)CC2)nc2c1c(=O)[nH]c(=O)n2C, the Potency was inconclusive: 17.8 µM [inhibitor, partial curve].

From PubChem BioAssay AID504332 (National Center for Advancing Translational Sciences (NCATS), 2011)
Further: nearly all actives have a fitted effect of over 75% in size.
On the % scale 0 is the no-effect control and ±100 the full control effect; potency means the concentration at half of the fitted maximal effect; tags describe the fitted curve by direction and shape.
